{"source": "PubChem BioAssay AID686971", "about": "(National Center for Advancing Translational Sciences (NCATS), 2013)", "note": "The whole screen tested about 360,000 compounds, of which about 7,500 (2.1%) were called active. The shares of active, inactive and inconclusive entries below differ from those in the screen. The call rests on the fitted dose curve; in most records, active means well fitted cell-killing curve with a large enough effect; inconclusive means small, poorly fitted or top-dose-only effect, or effect the other way, or another doubt; inactive means no such curve, though single readings can be large or run the other way. Potencies of inconclusive entries are left out as doubtful fits. Potency means the concentration at half of the fitted maximal effect; tags describe the fitted curve by direction and shape."}
{"experiment": "qHTS for induction of synthetic lethality in tumor cells producing 2HG: qHTS for the HT-1080-IDH1KD cell line;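 on activity, negative = toxicity: 0% = DMSO wells and -100% = cell-free medium wells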", "settings": "HT-1080 IDH1 knockdown viability, ATP luminescence, 48 h; activity, negative = toxicity: at 46.1 µM (top of the series) unless noted", "outline": "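Using the IDH1-knockdown HT-1080 line run in the same batch and compound series as the NT line, viability after 48 h at 37 °C was determined by CellTiter-Glo luminescence and expressed as % activity.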"}
{"compound": "CCn1c(C(=O)NCc2ccccc2Br)cc2oc3ccccc3c21", "Potency": "inconclusive [cytotoxic, full curve]"}
{"compound": "NC(=O)CSc1oc(-c2ccco2)nc1S(=O)(=O)c1ccc(F)cc1", "Potency": "inactive"}
{"compound": "COc1ccc(N(C(=O)c2ccccc2C)S(=O)(=O)c2cccs2)cc1", "Potency": "active: 0.92 µM"}
{"compound": "CCn1nc(NC(=O)c2ccco2)c2cc3ccc(C)cc3nc21", "Potency": "inconclusive [cytotoxic, single point]"}
{"compound": "CCCCCCNC(=O)OC12CN(C(=O)OC(C)C)N(C(=O)OC(C)C)CC1(O)CN(S(=O)(=O)c1ccc(C)cc1)C2", "note": "(configuration not stated)", "Potency": "inconclusive [cytotoxic, single point]"}
{"compound": "O=C(NCCCN1CCCC1)c1ccc2c(c1)N(Cc1ccccc1F)C(=O)c1ccccc1S2=O", "note": "(configuration not stated)", "Potency": "inconclusive [cytotoxic, single point]"}
{"compound": "O=C(COc1ccccc1)Nc1nc2cc3c(cc2s1)OCO3", "Potency": "inconclusive [cytotoxic, single point]"}
{"compound": "CCCCN1C(=O)C(O)(CC(=O)c2ccco2)c2cc(Br)ccc21", "note": "(configuration not stated)", "Potency": "inconclusive [cytotoxic, single point]"}
{"compound": "Cc1ccc(C(=O)N/C(=C\\c2ccc(Br)cc2)c2nc(=S)[nH][nH]2)cc1", "Potency": "inconclusive [cytotoxic, single point]"}
{"compound": "Cc1ccnc(NC(=O)c2ccc3c(c2)OCO3)c1", "Potency": "inconclusive [cytotoxic, single point]"}
{"compound": "Cc1ccc2[nH]cc(/C=C/c3cc[n+](C)cc3)c2c1", "Potency": "inconclusive [cytotoxic, single point]"}
{"compound": "CCOC(=O)c1cc2sccc2n1CC(=O)Nc1ccc(OC)c(OC)c1", "Potency": "inconclusive [rising, single point]"}
{"compound": "COC(CNC(=O)c1ccc2c(c1)nc(C)n2-c1cccc(C)c1)OC", "Potency": "inactive"}
{"compound": "CCOC(=O)C(=CNc1ccc(Oc2cccnc2)nc1)C(=O)OCC", "Potency": "inactive"}
{"compound": "CCOC(=O)c1cc2c(=O)n3ccccc3nc2n(CCCOC)c1=NC(=O)C(C)(C)C", "Potency": "inactive"}
{"compound": "CCCCN(CC)CCCNC(=O)c1cc2c(=O)n(CC)c3ccccc3c2s1", "Potency": "active: 29.1 µM"}
{"compound": "CCCCCCCCC(=O)N/N=C(\\C)c1ccc(O)cc1O", "Potency": "inconclusive [cytotoxic, single point]"}
{"compound": "Cc1ccc(-c2nnc3ccc(SCC(=O)N4CCCc5ccccc54)nn23)cc1", "Potency": "inconclusive [cytotoxic, single point]"}
{"compound": "C/C(=N/NC(=O)c1cc2ccccc2cc1O)c1ccco1", "Potency": "inconclusive [cytotoxic, single point]"}
{"compound": "COc1cccc(/C=N/NC(=O)c2cnccn2)c1", "Potency": "inactive"}
{"compound": "S=c1[nH]nc(-c2ccc(Br)o2)n1Cc1ccccc1", "Potency": "inconclusive [cytotoxic, single point]"}
{"compound": "COc1ccc(C2c3ccc4ccccc4c3Oc3ncn(CCCO)c(=N)c32)cc1", "note": "(configuration not stated)", "activity, negative = toxicity": "inconclusive: -97.8%"}
{"compound": "NC(Cc1ccc(Cl)cc1)c1csc(NC(=O)Nc2ccccc2)n1", "note": "(configuration not stated)", "Potency": "active: 18.4 µM"}
{"compound": "Cc1sc2ncn(CC(=O)N3CCN(c4ccccn4)CC3)c(=O)c2c1S(=O)(=O)N1CCCCC1", "Potency": "inactive"}
{"compound": "COc1c(Cl)cc(Cl)cc1/C=C/C(=O)c1ccc(NC(=O)c2cccs2)cc1", "Potency": "inconclusive [cytotoxic, single point]"}
{"compound": "COc1ccc(/C=N/NC(=O)c2cccc3ccccc23)c(OC)c1OC", "Potency": "active: 16.4 µM"}
{"compound": "Fc1ccc(-c2nc3ccc(Br)cn3c2Cc2cccc(Cl)c2)cc1", "Potency": "inconclusive [cytotoxic, single point]"}
{"compound": "NC(=O)c1ccsc1NC(=O)CCc1ccccc1", "Potency": "inactive"}
{"compound": "Cc1ccc(C(=O)Nc2c(-c3cccs3)c(=O)c3ccccc3n2C)cc1", "Potency": "inconclusive [cytotoxic, single point]"}
{"compound": "Cc1ccccc1Cn1nc(C)c(NC(=O)c2noc3c2CCCC3)c1C", "Potency": "inconclusive [cytotoxic, single point]"}
{"compound": "O=C(CC1C(=O)NCCN1C(=O)Nc1ccccc1)Nc1cc(Cl)cc(Cl)c1", "note": "(configuration not stated)", "Potency": "active: 25.9 µM"}
{"compound": "Cc1cccc(C)c1NC(=O)c1ccc([N+](=O)[O-])s1", "Potency": "inconclusive [cytotoxic, single point]"}
{"compound": "O=C(Nc1ccc2c(c1)CCC2)c1cc(S(=O)(=O)Nc2ccc(F)cc2)c(Cl)cc1Cl", "Potency": "inconclusive [cytotoxic, single point]"}
{"compound": "CC[C@H](C)[C@H](NC(=O)c1ccccc1)C(=O)NC(CC(=O)O)c1ccc(F)cc1", "note": "(some centres not stated)", "Potency": "inactive"}
{"compound": "COc1ccc(CC(=O)NCC2CCCN(Cc3ccccc3Cl)C2)cc1", "note": "(configuration not stated)", "Potency": "inactive"}
{"compound": "O=C(NCCc1ccc2c(c1)OCO2)Oc1ccccc1", "Potency": "inactive"}
{"compound": "CCNC(=O)C1CCCN(C(=O)c2cc(F)cc(F)c2)CC1", "note": "(configuration not stated)", "Potency": "inactive"}
{"compound": "CC(C)(C)OC(=O)NCCCC[C@H](NC(=O)c1[nH]cnc1C(=O)Nc1ccccc1)C(=O)OC(C)(C)C", "Potency": "inconclusive [cytotoxic, single point]"}
{"compound": "O=S(=O)(Nc1nc2ccccc2nc1NCC1CCCO1)c1ccccc1", "note": "(configuration not stated)", "Potency": "inactive"}
{"compound": "CS(=O)(=O)c1ccc(-c2cc(NC=O)c3ncc(-c4ccc(F)cc4)n3c2)cc1", "Potency": "inconclusive [cytotoxic, partial curve]"}
{"compound": "O=C1NC(=Nc2ccc(O)cc2)S/C1=C\\C=C\\c1ccco1", "Potency": "active: 1.46 µM"}
{"compound": "COc1ccc(S(=O)(=O)N2CCC[C@H]2C(=O)N2CCC[C@H]2C(=O)N(C)Cc2ccccc2)cc1C", "Potency": "inactive"}
{"compound": "CC1(C(=O)NCc2cccc3ccccc23)CCN1Cc1cc2ccccc2o1", "note": "(configuration not stated)", "Potency": "inconclusive [cytotoxic, single point]"}
{"compound": "COc1cc(C(c2c(C)[nH][nH]c2=O)c2c(C)[nH][nH]c2=O)ccc1OC(C)C", "Potency": "inactive"}
{"compound": "CCOc1ccc(-c2nnn(CC(=O)c3cc(OC)ccc3OC)n2)cc1", "Potency": "inactive"}
{"compound": "CC(C)OC(=O)c1cc2c(ccn2C)n1CC(=O)N(Cc1ccccc1)c1ccc(F)cc1", "Potency": "active: 20.6 µM"}
{"compound": "COc1ccc(C(=O)N/C(=C\\c2cccs2)c2nc3ccccc3[nH]2)cc1OC", "Potency": "inconclusive [cytotoxic, single point]"}
